Out of some 48,000 compounds screened, about 450 (0.94%) were called active. The shares of active, inactive and inconclusive entries below differ from those in the screen. Calls follow the shape of the dose curve; as a rule, active = well fitted inhibition curve with a large enough effect; inconclusive = small, poorly fitted or top-dose-only effect; inactive = no such curve, though single readings can be large or run the other way. Where the call is inconclusive, the potency comes from a doubtful curve fit.
Assay: Primary qHTS for Identification of Small Molecule Inhibitors of Huntingtin Promoter Activity; also: nearly all actives have a fitted effect of over 50% in size
Settings: HEK293 HTT promoter firefly luciferase reporter (activity 0% = vehicle and -100% = no light), 24 h; series mostly up to 57.5 µM
How it was run: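 HEK293 luciferase promoter-reporter cells (2,500/well) plated 24 h, then compounds added at up to 57.5 uM final for 24 h at 37 °C. Firefly luminescence by Dual-Glo, normalized to vehicle (0%) and zero RLU (-100%).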
Potency is read from the fitted curve at half-maximal effect; tags tell the direction and shape of the fitted curve.

| SMILES | Potency |
| --- | --- |
| COc1ccccc1N1CCN(C(=O)c2cnn(-c3ccc(C)c(C)c3)c2C2CCN(C(=O)OC(C)(C)C)CC2)CC1 | inconclusive: 25.1 µM [inhibitor, single point] |
| CCOC(=O)c1ccc(NC(=O)C2CCN(C(=O)N3CC(C)Oc4ccc(C)cc43)CC2)cc1 (stereo unspecified) | inconclusive: 39.8 µM [inhibitor, single point] |
| O=S(=O)(NCCc1csc2nc(-c3ccc(Cl)cc3)nn12)c1ccc(Oc2ccccc2)cc1 | inconclusive: 14.1 µM [inhibitor, partial curve, poor fit] |
| Cc1cc2c(cc1S(=O)(=O)CCC(=O)NC1CCC(C)CC1)OCC(=O)N2 (stereo unspecified) | inconclusive: 12.6 µM [inhibitor, partial curve, poor fit] |
| Cc1ccc(O)c(NC(=O)c2noc3c2CCCCC3)c1 | inactive |
| CC[C@H](NC(=O)[C@H](C)NC)C(=O)N1C[C@@H](O)C[C@H]1Cc1c(-c2[nH]c3cc(F)ccc3c2C[C@H]2C[C@H](O)CN2C(=O)[C@H](CC)NC(=O)[C@H](C)NC)[nH]c2cc(F)ccc12 | inconclusive: 43.2 µM [inhibitor, partial curve, poor fit] |
| CCOc1ccc(OCC)c(NC(=O)C(NS(=O)(=O)c2ccc(Br)s2)c2ccccc2)c1 (stereo unspecified) | inactive |
| CCc1ccc(NC(=O)c2ccc3oc(=O)n(Cc4ccccc4)c3c2)cc1 | inconclusive: 39.8 µM [inhibitor, single point] |
| CCN(c1ncnc2c1cnn2-c1cc(Cl)ccc1C)C1CCCCC1 | inconclusive: 22.4 µM [inhibitor, partial curve] |
| O=C(NCc1cccc(Br)c1)C1CCN(C(=O)c2sccc2-n2cccc2)CC1 | inconclusive: 39.8 µM [inhibitor, single point] |
| CCCSc1nnc(NC(=O)c2cc(=O)c3ccccc3o2)s1 | inactive |
| COc1ccc(S(=O)(=O)N(CCc2ccccc2)CC(=O)Nc2cc(Cl)ccc2C)cc1 | inconclusive: 39.8 µM [inhibitor, single point] |
| COc1ccc(NC(=O)C2CCCN(S(=O)(=O)c3ccc4[nH]c(=O)ccc4c3)C2)cc1Cl (stereo unspecified) | inconclusive: 28.2 µM [inhibitor, single point] |
| NC(=O)c1c(NC(=O)CS(=O)(=O)c2ccc(Cl)cc2)sc2c1CCCC2 | inconclusive: 31.6 µM [inhibitor, partial curve, poor fit] |
| Cc1ccc(-c2nn(CCC(=O)Nc3ccc(OC(F)(F)F)cc3)c(=O)c3ccccc23)cc1 | inactive |
| Cc1ccccc1NC(=O)c1c(C)oc2ccc(O)c(CN(C)Cc3ccccc3)c12 | inconclusive: 35.5 µM [inhibitor, single point] |
| CCCCCn1c(CCCNC(=O)c2ccccc2)nc2ccccc21 | inconclusive: 22.4 µM [inhibitor, single point] |
| Cc1cc(F)ccc1NC(=O)C1CCCN(C(=O)c2cnn(-c3ccccc3)c2-n2cccc2)C1 (stereo unspecified) | inconclusive: 31.6 µM [inhibitor, partial curve, poor fit] |
| COc1ccc(N(CC(=O)N2CCN(c3cccc(Cl)c3)CC2)S(=O)(=O)c2c(C)noc2C)cc1 | inconclusive: 25.1 µM [inhibitor, single point] |

| SMILES | Potency |
| --- | --- |
| COc1cc(C=CC(=O)CC(=O)C=Cc2ccc(O)c(OC)c2)ccc1O | inconclusive: 88.5 µM [inhibitor, single point] |
| Cc1ccc(OCC(=O)OCc2cc(=O)n3nc(C4CC4)sc3n2)cc1C | inconclusive: 39.8 µM [inhibitor, partial curve, poor fit] |
| COc1ccc(C)cc1NC(=O)Cn1c(=O)oc2cc(S(=O)(=O)N3CCCCCC3)ccc21 | inconclusive: 5.62 µM [inhibitor, partial curve] |
| CN1CCN(Cc2ccc(NC(=O)Nc3ccc(Oc4cc(NC(=O)C5CC5)ncn4)cc3)cc2C(F)(F)F)CC1 | inconclusive: 2.43 µM [inhibitor, full curve] |
| CCC[C@@H](NC(=O)[C@@H]1[C@H]2CCC[C@@H]2CN1C(=O)[C@@H](NC(=O)[C@@H](NC(=O)c1cnccn1)C1CCCCC1)C(C)(C)C)C(=O)C(=O)NC1CC1 | inconclusive: 24.3 µM [inhibitor, partial curve, poor fit] |
| CC(=O)N1CCc2cc(Br)cc(S(=O)(=O)CCC(=O)N3CCN(c4cccc(C)c4C)CC3)c21 | inconclusive: 39.8 µM [inhibitor, single point] |
| CCc1ccccc1NC(=O)N1CCN(Cc2nc3ccc(C)cc3o2)CC1 | inconclusive: 35.5 µM [inhibitor, single point] |
| Cc1noc(C)c1S(=O)(=O)N(CC(=O)Nc1ccc(C(F)(F)F)cc1)c1ccc(C(C)C)cc1 | inconclusive: 20 µM [inhibitor, single point] |
| CCOC(=O)N1CCN(Cc2nc3cc(NC(=O)CC(C)C)ccc3n2C(C)C)CC1 | inconclusive: 3.55 µM [inhibitor, full curve] |
| O=C(NCc1ccc2c(c1)CCN2C(=O)c1ccc(F)cc1)c1c(F)cccc1F | inconclusive: 35.5 µM [inhibitor, single point] |
| Nc1nonc1-c1nc2ccccc2n1CC(=O)Nc1cccc(C(F)(F)F)c1 | inconclusive: 39.8 µM [inhibitor, single point] |
| CCS(=O)(=O)N1CCc2cc(C(=O)Nc3cc(C)cc(C)c3)ccc21 | inactive |
| Cc1ccc(C)c(N2CCN(C(=O)NCc3noc4ccccc34)CC2)c1 | inconclusive: 25.1 µM [inhibitor, partial curve, poor fit] |
| CN1CCC(CNc2ccc3ncc(-c4cccc(OC(F)(F)F)c4)n3n2)CC1 | inconclusive: 21.7 µM [inhibitor, partial curve] |
| O=S(=O)(NCC(c1ccco1)N1CCN(c2ccc(F)cc2)CC1)c1cc(F)ccc1F (stereo unspecified) | inconclusive: 28.2 µM [inhibitor, partial curve, poor fit] |
| COc1ccc(CCNC(=O)c2ccc3[nH]c(C)c(C)c3c2)cc1OC | inconclusive: 31.6 µM [inhibitor, partial curve, poor fit] |
| O=C(Nc1ccccc1)c1ccc(Cl)c(S(=O)(=O)Nc2ccccc2)c1 | inactive |
| Cc1ccc(C(=O)c2cn(Cc3ccccc3)c3c(F)cc(F)cc3c2=O)cc1 | inconclusive: 28.2 µM [inhibitor, single point] |
| Cc1cc(Nc2cccc(Cl)c2)nc2ccc(NC(=O)Cc3c(F)cccc3Cl)cc12 | inactive |

| SMILES | Potency |
| --- | --- |
| COc1ccc2nc(N(Cc3cccnc3)C(=O)c3ccc(Cl)cc3)sc2c1 | inconclusive: 39.8 µM [inhibitor, single point] |
| O=C(Nc1ccc(Br)cc1)c1cc(S(=O)(=O)N2CCc3ccccc32)ccc1F | inconclusive: 31.6 µM [inhibitor, partial curve, poor fit] |
| CCC(C(=O)O)C1CCC(C)C(C(C)C(O)C(C)C(=O)C(CC)C2OC3(C=CC(O)[C@@]4(CC[C@](C)(C5CC[C@@](O)(CC)C(C)O5)O4)O3)C(C)CC2C)O1 (stereo partly specified) | inconclusive: 1.93 µM [inhibitor, full curve] |
| Cc1ccc(NC(=O)c2nc(S(C)(=O)=O)ncc2N(Cc2ccco2)Cc2ccco2)cc1 | inconclusive: 22.4 µM [inhibitor, partial curve, poor fit] |
| Cc1ccc(-c2nc(-c3cccs3)c(-c3cccs3)[nH]2)cc1 | inconclusive: 39.8 µM [inhibitor, single point] |
| Cc1ccc(S(=O)(=O)c2nnn3c2nc(NC2CCCCC2)c2sccc23)cc1C | inconclusive: 39.8 µM [inhibitor, single point] |
| Cc1cc(C)cc(OCC(=O)N(Cc2ccco2)Cc2ccccc2Cl)c1 | inconclusive: 35.5 µM [inhibitor, single point] |
| CCc1ccccc1NC(=O)Cn1nnc(C(=O)NCc2cccc(OC)c2)c1N | inconclusive: 5.62 µM [inhibitor, partial curve, poor fit] |
| O=C(Nc1ncc(Cc2ccccc2Cl)s1)c1ccc2c(c1)CC(c1ccccc1)OC2=O (stereo unspecified) | inconclusive: 12.6 µM [inhibitor, partial curve, poor fit] |
| CCc1ccccc1NC(=O)Cn1nc(C)c2nn(-c3ccc(Cl)cc3)c(C)c2c1=O | inconclusive: 28.2 µM [inhibitor, single point] |
| Cc1ccc(NC(=O)Cn2cc(S(=O)(=O)Cc3ccccc3)c3ccccc32)cc1C | inconclusive: 31.6 µM [inhibitor, single point] |
| CN1CCN(C(=O)C2CCCCC2)CC1 | inactive |
| Cc1ccc(-n2nc(C(=O)N(C)c3ccccc3Cl)c3c4ccccc4n(C)c3c2=O)cc1 | inconclusive: 6.31 µM [inhibitor, single point] |
| CCOC(=O)C(Cc1ccccc1)NC(=O)Cn1nnc(-c2ccc(C)cc2)n1 (stereo unspecified) | inactive |
| CN(C)S(=O)(=O)N(CC(=O)NCCSCc1ccc(Cl)cc1Cl)c1ccccc1 | inconclusive: 39.8 µM [inhibitor, single point] |
| CSc1ccc(CCNC(=O)C2CCCN(S(=O)(=O)N(C)c3ccc(F)cc3)C2)cc1 (stereo unspecified) | inconclusive: 28.2 µM [inhibitor, single point] |
| COc1ccc(NC(=O)CN2C(=O)C(c3ccccc3)=NC23CCC(C)CC3)cc1Cl (stereo unspecified) | inconclusive: 28.2 µM [inhibitor, single point] |
| CC(C)c1ccc(NC(=O)c2cc(S(=O)(=O)NCCc3ccccc3)ccc2F)cc1 | inconclusive: 28.2 µM [inhibitor, partial curve, poor fit] |
